# Experimental data taken from the supplement of paper PMC10037445.
# Whole data set: some 2,900 compounds, median “NF-kB SEAP reporter activity, fold change vs agonist alone” near 0.99, cut for the highest 2% near 2.6. This is one part of the list.
# Experiments:
# [1] = system: RAW-Dual; experiment: NF-kB SEAP reporter activity, fold change vs agonist alone; higher = enhanced NF-kB activity; details: library stock concentration (final ~1000-fold dilution): 10 mM
# In short: (§1)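 After 50 nL of library stock was delivered by pin tool to RAW-Dual macrophages (50,000 cells/well, DMEM, 384-well plates), a PRR agonist was added 1 h later and the plates were kept at 37 °C, 5% CO2. Twenty hours later, IRF was read from supernatant by QuantiLuc luminescence and NF-κB by QuantiBlue absorbance at 620 nm. Reporter activity is stated as fold change over agonist-alone wells. Wells with IncuCyte confluency under 70% of agonist controls in both mask sets were counted as cytotoxic.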
# [2] = system: RAW-Dual; experiment: NF-kB SEAP reporter activity, fold change vs agonist alone; cytotoxicity flag (confluency mask): not cytotoxic; higher = enhanced NF-kB activity
# In short: as §1
# [3] = system: RAW-Dual; experiment: NF-kB SEAP reporter activity, fold change vs agonist alone; cytotoxicity flag (confluency mask): cytotoxic (confluency <70% of control); higher = enhanced NF-kB activity
# In short: as §1
# [4] = cytotoxicity flag (confluency mask): not cytotoxic, agonist: Imiquimod (TLR7) […]
# [5] = cytotoxicity flag (confluency mask): not cytotoxic, agonist: MPLA (TLR4) […]
# [6] = agonist: ODN 1826 (TLR9) 0.5 ug/mL
# [7] = agonist: Pam2CSK4 (TLR2/6) 0.1 ug/mL
# [8] = agonist: Pam3CSK4 (TLR2/1) 0.1 ug/mL
# [9] = cytotoxicity flag (confluency mask): cytotoxic (confluency <70% of control), agonist: Imiquimod (TLR7) […]
# [10] = cytotoxicity flag (confluency mask): cytotoxic (confluency <70% of control), agonist: MPLA (TLR4) […]
smiles,measurement,setting,value
COc1ccc(C2CNC(=O)C2)cc1OC1CCCC1 (stereo unspecified),NF-kB SEAP reporter activity,[1]; [4],1.43
same,NF-kB SEAP reporter activity,[1]; [5],1.15
COc1ccc(C2CNC(=O)C2)cc1OC1CCCC1 (stereo unspecified) (library stock concentration (final ~1000-fold dilution): 10 mM),NF-kB SEAP reporter activity,[2]; agonist: LPS (TLR4) 0.1 ug/mL,1.54
same,NF-kB SEAP reporter activity,[2]; [6],2.26
same,NF-kB SEAP reporter activity,[2]; [7],1.27
same,NF-kB SEAP reporter activity,[2]; [8],1.45
C=CC(=O)Nc1cc(Nc2nccc(-c3cn(C4CC4)c4ccccc34)n2)c(OC)cc1N(C)CCN(C)C,NF-kB SEAP reporter activity,[1]; [9],0.36
same,NF-kB SEAP reporter activity,[1]; [10],0.368
C=CC(=O)Nc1cc(Nc2nccc(-c3cn(C4CC4)c4ccccc34)n2)c(OC)cc1N(C)CCN(C)C (library stock concentration (final ~1000-fold dilution): 10 mM),NF-kB SEAP reporter activity,[3]; agonist: LPS (TLR4) 0.1 ug/mL,0.44
same,NF-kB SEAP reporter activity,[3]; [6],0.185
same,NF-kB SEAP reporter activity,[3]; [7],0.127
same,NF-kB SEAP reporter activity,[3]; [8],0.16
COc1ccc(F)c(F)c1C(=O)c1cnc(NC2CCN(S(C)(=O)=O)CC2)nc1N,NF-kB SEAP reporter activity,[1]; [4],0.977
same,NF-kB SEAP reporter activity,[1]; [5],0.905
COc1ccc(F)c(F)c1C(=O)c1cnc(NC2CCN(S(C)(=O)=O)CC2)nc1N (library stock concentration (final ~1000-fold dilution): 10 mM),NF-kB SEAP reporter activity,[2]; agonist: LPS (TLR4) 0.1 ug/mL,0.194
same,NF-kB SEAP reporter activity,[2]; [6],0.985
same,NF-kB SEAP reporter activity,[2]; [7],0.0957
same,NF-kB SEAP reporter activity,[2]; [8],1.16
Cc1ccc(C(C)C)cc1O (library stock concentration (final ~1000-fold dilution): 10 mM),NF-kB SEAP reporter activity,[2]; agonist: LPS (TLR4) 0.1 ug/mL,1.14
same,NF-kB SEAP reporter activity,[2]; [6],1.02
same,NF-kB SEAP reporter activity,[2]; [7],1.02
same,NF-kB SEAP reporter activity,[2]; [8],1.31
Cc1ccc(C(C)C)cc1O,NF-kB SEAP reporter activity,[1]; [4],1.06
same,NF-kB SEAP reporter activity,[1]; [5],1.17
Cc1cc[nH]n1 (library stock concentration (final ~1000-fold dilution): 10 mM),NF-kB SEAP reporter activity,[2]; agonist: LPS (TLR4) 0.1 ug/mL,1.15
same,NF-kB SEAP reporter activity,[2]; [6],0.951
same,NF-kB SEAP reporter activity,[2]; [7],1.12
same,NF-kB SEAP reporter activity,[2]; [8],1.04
Cc1cc[nH]n1,NF-kB SEAP reporter activity,[1]; [5],1.09
Cl.O=C1CN2Cc3c(ccc(Cl)c3Cl)NC2=N1,NF-kB SEAP reporter activity,[1]; [4],1.34
same,NF-kB SEAP reporter activity,[1]; [5],1.26
Cl.O=C1CN2Cc3c(ccc(Cl)c3Cl)NC2=N1 (library stock concentration (final ~1000-fold dilution): 10 mM),NF-kB SEAP reporter activity,[2]; agonist: LPS (TLR4) 0.1 ug/mL,0.887
same,NF-kB SEAP reporter activity,[2]; [6],1.24
same,NF-kB SEAP reporter activity,[2]; [7],0.872
same,NF-kB SEAP reporter activity,[2]; [8],1.01
COc1ccc(-c2ccc3ncc4c(c3c2)n(-c2ccc(N3CCNCC3)c(C(F)(F)F)c2)c(=O)n4C)cn1.O=C(O)/C=C\C(=O)O,NF-kB SEAP reporter activity,[1]; [9],0.273
same,NF-kB SEAP reporter activity,[1]; [10],0.298
COc1ccc(-c2ccc3ncc4c(c3c2)n(-c2ccc(N3CCNCC3)c(C(F)(F)F)c2)c(=O)n4C)cn1.O=C(O)/C=C\C(=O)O (library stock concentration (final ~1000-fold dilution): 10 mM),NF-kB SEAP reporter activity,[3]; agonist: LPS (TLR4) 0.1 ug/mL,0.236
same,NF-kB SEAP reporter activity,[3]; [6],0.205
same,NF-kB SEAP reporter activity,[3]; [7],0.085
same,NF-kB SEAP reporter activity,[3]; [8],0.217
